# Over roughly 33,000 sequences, “E-score (-0.5 to 0.5)” has its median near -0.012; the highest 2% begin near 0.29. This is one part of the list.
# Biological target: T1, Ybr033w (UniProt P38073)
# T1 sequence: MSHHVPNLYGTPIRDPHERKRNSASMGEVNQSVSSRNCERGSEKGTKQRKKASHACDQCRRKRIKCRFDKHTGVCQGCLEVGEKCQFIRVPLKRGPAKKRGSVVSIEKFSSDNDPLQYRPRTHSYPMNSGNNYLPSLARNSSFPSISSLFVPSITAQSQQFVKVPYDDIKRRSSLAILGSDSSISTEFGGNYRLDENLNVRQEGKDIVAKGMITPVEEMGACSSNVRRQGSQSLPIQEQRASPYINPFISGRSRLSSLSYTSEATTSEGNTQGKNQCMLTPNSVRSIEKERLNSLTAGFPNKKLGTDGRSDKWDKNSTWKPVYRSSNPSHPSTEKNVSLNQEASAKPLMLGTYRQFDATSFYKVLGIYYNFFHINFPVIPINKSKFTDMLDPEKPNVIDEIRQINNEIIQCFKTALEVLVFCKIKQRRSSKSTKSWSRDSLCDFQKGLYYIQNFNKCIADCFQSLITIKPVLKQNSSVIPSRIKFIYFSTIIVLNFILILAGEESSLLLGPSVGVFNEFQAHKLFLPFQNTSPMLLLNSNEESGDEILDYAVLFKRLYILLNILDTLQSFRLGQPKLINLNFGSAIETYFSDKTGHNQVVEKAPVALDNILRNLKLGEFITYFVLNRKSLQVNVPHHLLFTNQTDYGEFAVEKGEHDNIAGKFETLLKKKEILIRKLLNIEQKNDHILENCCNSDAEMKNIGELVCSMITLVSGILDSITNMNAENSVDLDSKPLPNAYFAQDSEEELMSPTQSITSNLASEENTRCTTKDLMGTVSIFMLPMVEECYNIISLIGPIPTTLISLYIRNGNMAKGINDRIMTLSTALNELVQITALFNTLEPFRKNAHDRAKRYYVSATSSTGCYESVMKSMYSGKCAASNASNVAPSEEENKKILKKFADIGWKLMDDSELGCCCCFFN
# Assay: PBM E-score (8-mer binding enrichment) (E-score (-0.5 to 0.5)); higher = stronger / more preferred TF binding; most listed sequences are background and not binding sites
# Details: protein concentration: 200 nM; construct: GST-full length
# In short: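 Yeast transcription factors, full-length or as DNA-binding domains, were expressed with a GST tag using PURExpress in vitro transcription/translation. At about 100-200 nM they were applied to universal all-10-mer Agilent arrays, double-stranded by primer extension on fresh or once-stripped slides. Fluorescent anti-GST detected bound protein, and masliner normalised the scans. E-scores for ungapped eight-base words, pooled with reverse complements, came from the Universal PBM Analysis Suite.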
row,Sequence,PBM E-score
1,GCTCTGCA,-0.174
2,AAGCTTAA,0.0186
3,CACCACGG,-0.277
4,GGTCGTCA,-0.0863
5,AACTACCA,0.189
6,CTAAACCC,-0.133
7,GGTCTCAA,-0.141
8,ATTATTAG,0.152
9,CCCAACAA,0.0356
10,CGACACAG,-0.103
11,AGCATGCT,-0.0521
12,CCTAAACC,-0.135
13,CTAGATCC,-0.143
14,ACGGTGAA,0.189
15,GTCGTCAC,-0.0476
16,GCCTGTGA,-0.251
17,AGCACTTA,-0.0291
18,ATTAGGTC,0.201
19,GAATTAAA,0.149
20,ACCGCCGG,-0.117
21,GTTGTTCA,0.0634
22,TAGTACTA,0.0809
23,CTACGTTA,-0.0152
24,CACCTCGG,-0.159
25,TACATGAA,0.104

row,Sequence,PBM E-score
1,GGAACTCC,-0.154
2,ACTGGACT,-0.126
3,GTATCCTA,-0.038
4,GACATAAA,0.0826
5,GTCCTGTA,0.0689
6,AGGACATA,-0.00127
7,CACAGACG,-0.12
8,GTAAATAA,0.279
9,TAGTTTCA,0.247
10,GACAGTCA,-0.16
11,AGTAGCTC,-0.0251
12,ATATGCCG,0.0394
13,AGCGATTG,-0.0938
14,ACTGAGAG,-0.126
15,GAGAAGAA,-0.0376
16,TGCCAGAA,-0.112
17,ACGGTACG,-0.0478
18,TACTTGCA,0.106
19,GCCCGTCC,-0.3
20,ACTTCTAA,-0.0604
21,GTGGCATA,-0.0451
22,AGGTTCTG,-0.0768
23,AGTCGAAA,0.0724
24,CCTACATA,-0.0758
25,GGGTCTGA,-0.111

row,Sequence,PBM E-score
1,CATTTTGG,-0.0616
2,GATACACA,0.0863
3,AGAAATAG,0.227
4,CTAAATCA,0.206
5,GTACCCGA,-0.222
6,CTCTCCGA,-0.0897
7,ACACTGCT,-0.12
8,ACGGAGCG,-0.107
9,AACAGAAT,0.179
10,GTATTCAA,0.205
11,CTTCTAGA,0.0265
12,ACCGTCCC,-0.184
13,GAAAGAGA,-0.0161
14,AACTTCCG,0.168
15,ATCCGCTG,-0.0808
16,ATGCAGTA,0.156
17,ACTTTAAT,0.114
18,AACGTTCG,-0.0562
19,CGTCCCGC,-0.183
20,ACTCGTGA,-0.0972
21,AAGCTTTG,-0.00097
22,AAGATAGC,-0.0304
23,TCAGGTCA,-0.0657
24,ATGTGAGC,-0.189
25,CTCGGCAG,-0.0126

row,Sequence,PBM E-score
1,AAGTGCGT,0.0329
2,CCGGGTGA,-0.00109
3,GCATAAAA,0.176
4,AAGCACCT,-0.0785
5,ATATTGGC,-0.0342
6,CACCTGCG,0.0425
7,GGTGTTGA,-0.214
8,AAGCCCAG,-0.0433
9,ATAGCCTG,-0.0998
10,AAGGCAAT,0.115
11,GACTGCAA,-0.213
12,ACACATCC,0.0039
13,ACATAGAC,-0.0428
14,CGCCCCGC,-0.215
15,TCCAATAA,0.201
16,AACGTACT,0.133
17,ATACTGGA,0.211
18,AGCACCGA,0.0778
19,AAAGTGCT,0.173
20,AAAAGGCA,0.233
21,CAACCACA,0.0032
22,AAAGGATT,0.0765
23,CTGACAAA,0.203
24,CCTGATTC,0.0636
25,ATTAAGAC,0.159

row,Sequence,PBM E-score
1,CGCATAAA,0.297
2,ATATCACG,-0.00718
3,GCACTCAA,-0.151
4,ACCCCGGA,-0.0459
5,TGTACACA,0.112
6,ATACCGTG,-0.0804
7,CAATCCCG,0.0381
8,GAAGCACA,0.123
9,GCACGTGA,-0.207
10,AACTTAAC,0.265
11,ATTTCTAC,-0.0311
12,ACTACTTG,0.0703
13,CCCCGGGG,-0.398
14,AAGAATCA,0.224
15,CATTAACG,0.0841
16,GGTTGAAC,-0.0228
17,ACCTGGGC,-0.362
18,ATCCGCTA,0.0632
19,CATTCAGA,0.0377
20,ACACATGT,0.0925
21,GCGTGTCC,-0.115
22,AACTGTGG,0.118
23,ATTATCGC,0.319
24,CCAATTCC,0.0727
25,AGGGTATG,0.0472

row,Sequence,PBM E-score
1,ATGGACAA,0.164
2,AGGCAGGC,-0.244
3,AGAAAGGA,0.0496
4,ATTTAACA,0.183
5,ACCAGAAC,0.0756
6,AATCAAAT,0.175
7,ATACTCAT,0.0796
8,GAGAGGAA,0.00832
9,CGCGTCAG,-0.205
10,ACCGGGGA,-0.176
11,ACGTTTGG,-0.0501
12,ACACTGCA,-0.203
13,TGAGATCA,0.0986
14,AAGACGAC,0.0588
15,AGCCAACC,0.027
16,CTTCTTCC,0.0741
17,CTAGAGTC,-0.172
18,CGAGTGCG,0.0474
19,AGAGACTC,0.0372
20,CTAAAGCA,0.0926
21,AAGGCATC,-0.0488
22,GTGTAAAC,-0.00524
23,ATCAGGTG,-0.135
24,ATGTATCG,0.175
25,TAGAACGA,0.134

row,Sequence,PBM E-score
1,ACTCCGCC,-0.0727
2,ACTCACCC,-0.175
3,ACGACAGG,-0.133
4,AATATGTA,0.249
5,AGGTTCGC,-0.203
6,TGAACGAA,-0.0416
7,CAAGTGAA,0.0901
8,ATACACCC,0.125
9,CATCCCTC,-0.114
10,ATCATTGG,0.156
11,GGAGTCCA,-0.162
12,TAATTAAA,0.276
13,TAAATGCA,0.132
14,TAATCGCA,0.209
15,AGTCAGAG,-0.172
16,AGCGTTGC,-0.0711
17,AAGAGAAG,0.0159
18,AGTGTTGC,0.0949
19,CAACGGCG,-0.16
20,CGGCAAAC,0.0411
21,ACATCGCT,-0.101
22,GGACTGTA,-0.21

# Reference: the supplement of paper PMC3334620
